Assay results as given in PubChem BioAssay AID1745853 (National Center for Advancing Translational Sciences (NCATS), 2022).
Where “and” joins values, the source holds several entries; their conditions need not be identical. Equal entries are not always repeated. The list shows a part of the results. Shown are side measurements of this screen, not its main read-out; they come without a call.

Legend:
Assay in all cases: Primary Screen for Target Class Profiling of Small Molecule Inhibitors of Methyltransferases
[1] = molecular target: Glycine N-methyltransferase (Homo sapiens) (UniProt Q14749); settings: purified enzyme, MTase-Glo SAH luminescence; measured here: GNMT inhibition; at 40 µM; stronger effect = lower value
Outline: (§1)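 Each enzyme was assayed with SAM and its substrate. SAH formation detected by MTase-Glo luminescence; single-point 40 uM screen[…].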

[2] = molecular target: Guanidinoacetate N-methyltransferase (Homo sapiens) (UniProt Q14353); settings: purified enzyme, MTase-Glo SAH luminescence; measured here: GAMT inhibition; at 40 µM; stronger effect = lower value
Outline: as §1

[3] = molecular target: Histamine N-methyltransferase (Homo sapiens) (UniProt P50135); settings: purified enzyme, MTase-Glo SAH luminescence; measured here: HNMT inhibition; at 40 µM; stronger effect = lower value
Outline: as §1

[4] = molecular target: Nicotinamide N-methyltransferase (Homo sapiens) (UniProt P40261); settings: purified enzyme, MTase-Glo SAH luminescence; measured here: NNMT inhibition; at 40 µM; stronger effect = lower value
Outline: as §1

[5] = molecular target: Phenylethanolamine N-methyltransferase (Homo sapiens) (UniProt P11086); settings: purified enzyme, MTase-Glo SAH luminescence; measured here: PNMT inhibition; at 40 µM; stronger effect = lower value
Outline: as §1
On the % scale 0 is the no-effect control and ±100 the full control effect.

| SMILES | activity change, negative = inhibition [1] | activity change, negative = inhibition [2] | activity change, negative = inhibition [3] | activity change, negative = inhibition [4] | activity change, negative = inhibition [5] |
| --- | --- | --- | --- | --- | --- |
| COc1cc(CC2COC(c3ccc(OC4OC(CO)C(O)C(O)C4O)c(OC)c3)C2CO)ccc1O (stereo not given) | 0% | 6.71% | 7.94% | -2.93% | 7.63% |
| CN[C@H](C(=O)N[C@H](C(=O)N(C)[C@H](/C=C(\C)C(=O)O)C(C)C)C(C)(C)C)C(C)(C)c1ccccc1 | 3.32% | -5.99% | 1.85% | -13.6% | -3.26% |
| CCCn1c(=O)c2ccc(Cl)cc2n2c(=O)n(Cc3cccc(F)c3)nc12 | 2.85% | 5.47% | 11.8% | 1.46% | 3.9% |
| CCc1ccc(CNC(=O)c2ccc3c(=O)nc4c(-c5ccc(OC)cc5)n[nH]n4c3c2)cc1 | 4.07% | 0% | 1.21% | 5.01% | 3.21% |
| COCCN1C(=O)N(C)C(=O)C12CCN(Cc1cc(F)ccc1F)C2 (stereo not given) | -4.63% | -6.63% | -0.811% | -11.7% | -7.19% |
| Cc1ccc(Cn2c(=O)c3ccccc3n3c(-c4ccc(Cl)cc4)nnc23)cc1 | -8.6% | 5.1% | 3.76% | -0.27% | -3.85% |
| CCc1ccccc1N1C(=O)c2cc(-c3ccccc3)nn2CC1(C)C(=O)NCCCOC (stereo not given) | 7.17% | 0.444% | 8.36% | 11.5% | 1.4% |
| O=C(O)[C@H]1C[C@@H](C(=O)NCc2cccnc2)CN(Cc2ccccn2)C1 | -5.94% | -7.41% | -4.62% | -14.8% | -5.26% |
| CC(=O)O[C@]1(C(C)=O)CC[C@H]2[C@@H]3C[C@H](C)C4=CC(=O)C=C[C@]4(C)[C@@]3(F)[C@@H](O)C[C@@]21C | -1.95% | 5.73% | 11.4% | -9.1% | 4.74% |
| CCc1cc2c(cc3n2CC(C)(C(=O)NC2CCCCCC2)N(Cc2cccc(F)c2)C3=O)s1 (stereo not given) | -7.43% | 0.226% | -6.04% | -8.69% | -8.74% |
| Cc1ccc(C)c(C(=O)Cn2nc3n(C(C)C)c(=O)c4ccc(C(=O)NC5CCCC5)cc4n3c2=O)c1 | 5.21% | 0% | 9.73% | 2.35% | 3.83% |
| O=C(Cc1cccc(Cl)c1)N1CCC(C(=O)N2CCC(c3ccccc3)CC2)CC1 | -8.67% | -8.27% | -4.72% | -15.7% | 4.36% |
| C=Cc1ccc(Cn2nc3n(C(C)C)c(=O)c4ccc(C(=O)NCC(C)C)cc4n3c2=O)cc1 | -2.42% | 0.41% | -3.5% | -3.75% | -2.53% |
| COCc1noc([C@@H]2CC(F)(F)CN2C(=O)c2cnc(C)cn2)n1 | -3.05% | -2.86% | 0.718% | -9.85% | -3.76% |
| CNC(=O)[C@@H](C1CC1)N1CCC[C@H]1C(=O)N1CCOCC1 | 0.019% | -3.3% | 0.711% | 1.67% | 0.63% |
| COc1ccc(-c2nn(-c3ccccc3C)cc2CN2CCCN(C)CC2)cc1F | -8.38% | -10.2% | -13.4% | -19.3% | -10.6% |
| CCN1CCC[C@@H]1CNC(=O)c1ccc2c(c1)NC(=O)c1cccc(C)c1S2 | -4.58% | 9.32% | -49.1% | -20.6% | -5.89% |
| CC1OC(OC2C(O)C(OC3CCC4(C)C(CCC5(C)C4CC=C4C6CC(C)(COC7OC(CO)C(O)C(O)C7O)CC(O)C6(C)CCC45C)C3(C)C)OC(C(=O)O)C2O)C(O)C(O)C1OC1OCC(O)C(O)C1O (stereo not given) | -3.74% | -8.99% | 6.92% | -20.6% | 3.18% |
| CCC(C)NC(=O)c1ccc2c(=O)n(CC(C)C)c3n[nH]c(=O)n3c2c1 (stereo not given) | -5.83% | 0% | 4.52% | -4.06% | -7.51% |
| CNC(=O)C(C)(C)N1CCC[C@H]1C(=O)NCc1ccccc1 | -0.558% | -3.34% | 1.78% | -4.19% | -4.9% |
| CCCCc1nn(CC(=O)N2CCSCC2)c(=O)n1CCc1ccccc1 | -6.94% | -13% | -3.86% | -18.7% | -2.64% |
| CC(=O)NC1=NN(C(C)=O)C(C)(c2ccccc2)S1 (stereo not given) | 1.9% | 3.27% | 12.2% | -13.2% | 5.22% |
| NC(Cc1ccc(Cl)cc1)C(=O)O (stereo not given) | 1.09% | 9.57% | 4.79% | -1.26% | 10.1% |
| O=C(Cc1ccsc1)N1CCC2(CC1)N=C(c1cccc(Br)c1)NO2 | -2.92% | -1.6% | -1.32% | 6.76% | -0.161% |
| Cc1cc(C(C)(C)C)c(O)c(C)c1CC1=NCCN1 | 6.84% and -1.4% | 5.86% and 9.36% | -0.68% and 1.89% | -7.34% and -5.5% | 0.224% and 2.95% |
| CC(C)CCN1C(=O)c2cc3sccc3n2CC1(C)C(=O)NC1CCCC(C)C1C (stereo not given) | -2.07% | 4.27% | 0.27% | -1.56% | -2.91% |
| CC(CN1C(=O)c2cc(-c3ccco3)nn2CC1(C)C(=O)NC1CCCCCC1)c1ccccc1 (stereo not given) | -0.421% | -2.3% | 3.89% | -9.15% | -3.94% |
| COc1ccccc1CNC(=O)CCc1nnc2n(Cc3ccc(F)cc3)c(=O)c3ccccc3n12 | -11% | 0% | 3.73% | 4.45% | 0.408% |
| COc1cccc(Cn2nc3n(Cc4ccc(C)cc4)c(=O)c4ccc(C(=O)NC(C)C)cc4n3c2=O)c1 | 8.13% | 2.49% | 13.2% | 8.31% | 9.46% |
| O=C(CCc1nnc2n(Cc3ccc(Cl)cc3)c(=O)c3ccccc3n12)NCCCN1CCOCC1 | -6.66% | 0.191% | -7.03% | 1.04% | -3.36% |
